Publication PMC4336329 (PLoS ONE, 2015)
The campaign covered roughly 310,000 compounds. About 14,000 (4.5%) showed an effect of 50% or more. The effect is printed as a negative number. The list shows a part of the results.

The compounds below were run against human ether-à-go-go-related gene (hERG) potassium channel (human, UniProt Q12809) (assay: primary screen, population patch clamp on CHO cells stably expressing hERG).
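Further: peak tail current of the secondary pulse compared with the same well before compound.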

Chain of human ether-à-go-go-related gene (hERG) potassium channel (Q12809 whole entry, looked up): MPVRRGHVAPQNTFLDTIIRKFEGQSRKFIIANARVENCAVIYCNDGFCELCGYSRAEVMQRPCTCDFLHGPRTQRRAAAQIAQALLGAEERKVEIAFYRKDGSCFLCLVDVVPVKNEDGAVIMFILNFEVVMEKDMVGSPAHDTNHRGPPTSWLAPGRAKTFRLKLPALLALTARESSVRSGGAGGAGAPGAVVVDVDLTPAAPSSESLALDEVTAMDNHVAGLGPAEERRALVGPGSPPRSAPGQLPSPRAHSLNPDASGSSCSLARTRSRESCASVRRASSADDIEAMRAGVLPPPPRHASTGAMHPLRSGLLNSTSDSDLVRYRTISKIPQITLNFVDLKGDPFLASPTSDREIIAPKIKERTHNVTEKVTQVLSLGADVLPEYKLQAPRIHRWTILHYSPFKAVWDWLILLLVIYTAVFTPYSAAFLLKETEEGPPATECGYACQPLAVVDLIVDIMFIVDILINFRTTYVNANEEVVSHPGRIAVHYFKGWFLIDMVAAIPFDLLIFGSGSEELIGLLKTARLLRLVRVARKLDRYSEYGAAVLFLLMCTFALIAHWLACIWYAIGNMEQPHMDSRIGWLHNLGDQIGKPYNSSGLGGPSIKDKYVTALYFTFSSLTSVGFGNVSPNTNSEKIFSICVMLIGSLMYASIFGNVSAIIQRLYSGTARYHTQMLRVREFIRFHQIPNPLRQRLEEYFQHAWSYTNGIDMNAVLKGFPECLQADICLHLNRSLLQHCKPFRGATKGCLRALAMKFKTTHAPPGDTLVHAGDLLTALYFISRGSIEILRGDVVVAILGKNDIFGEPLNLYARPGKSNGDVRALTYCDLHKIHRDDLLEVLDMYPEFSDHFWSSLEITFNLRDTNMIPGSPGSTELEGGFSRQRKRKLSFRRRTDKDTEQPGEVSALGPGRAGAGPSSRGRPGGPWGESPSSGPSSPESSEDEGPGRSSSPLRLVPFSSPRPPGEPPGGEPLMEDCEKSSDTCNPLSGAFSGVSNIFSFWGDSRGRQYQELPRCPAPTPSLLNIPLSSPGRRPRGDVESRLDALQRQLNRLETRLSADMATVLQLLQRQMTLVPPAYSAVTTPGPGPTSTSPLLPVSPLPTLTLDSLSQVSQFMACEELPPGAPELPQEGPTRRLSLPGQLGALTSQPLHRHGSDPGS

SMILES	hERG current change (%, negative = inhibition) at 10uM [%]
Cn1c(=O)c2[nH]c(N3CCOCC3)nc2n(-c2ccccc2)c1=O	7.64
CC(C)Oc1ccc(C(=O)NC(C)(C)CO)cc1	19.6
COc1cc(Br)cc(C(c2c(C)n(C)n(-c3ccccc3)c2=O)c2c(C)n(C)n(-c3ccccc3)c2=O)c1O	2.99
Cc1ccc(S(=O)(=O)NC2=NCN(C3CCN(Cc4ccccc4)CC3)CN2)cc1	-15.4
COC(=O)CN1C(=O)[C@H]2[C@@H](/C=C/c3ccccc3)N3C(=O)CN(CC4CC4)C(=O)[C@@]3(Cc3ccccc3)[C@H]2C1=O	6.01
CCCN(C(=O)CCNC(=O)Cn1cnc2ccccc2c1=O)c1cccc(Cl)c1	-2.75
Cc1ccc(NC(=O)C(C)C(=O)Nc2ccc(C)cc2)cc1	14.3
CCc1ccc(S(=O)(=O)c2n[nH]n3c2nc(=O)c2ccccc23)cc1	-28.5
CCOC(=O)c1cc(C(=O)OCC)c2cc(Br)ccc2n1	-16.5
Cc1cc(C)nc(NC(=O)/C=C/c2ccccc2Cl)c1	8.35
O=C(COc1ccc2c(-c3ccccc3)cc(=O)oc2c1)N[C@@H](Cc1c[nH]c2ccc(O)cc12)C(=O)O	21.6
CCOC(=O)c1sc2nc(N3CCOCC3)c3c(c2c1N)CC(C(C)C)OC3 (stereo not drawn)	15.2
C=CCNC(=O)CN1C(=O)c2cccc3cccc1c23	-4.21
O=C(Nc1cc2c(cc1Br)OCCCO2)c1cccnc1	-2.34
O=C(Nc1nncs1)c1cccc(S(=O)(=O)N2CCOCC2)c1	3.17
COc1ccc(C(=O)n2nc(-c3ccc(C)cc3)nc2N)cc1OC	12.1
CC1CCCN(S(=O)(=O)c2ccc3c(c2)C(C)(C)C(=O)N3C)C1 (stereo not drawn)	9.32
CC(C)(C)NC(=O)CSc1nnc(NC(=O)c2ccccc2Cl)s1	6.62
CC(C)Cc1csc(NC(=O)c2ccc(Br)cc2)c1C(=O)O	35.7
Fc1ccc(CO/N=C2\CCCc3nonc32)cc1	-39.8
O=C(CNC(=O)c1cc2ccccc2o1)NCc1cccs1	15.2
CCC(C)N=C1CC(C)(C)CC(=O)/C1=C(/O)Cc1ccccc1 (stereo not drawn)	-4.03
COc1ccccc1N1CCN(/N=C/c2ccc([N+](=O)[O-])cc2)CC1	2.79
COc1ccccc1-c1cc(C(=O)N2CCOCC2)no1	10.5
Cc1ccc(Cl)c(OCC(=O)OC(C)C(=O)NC2CC2)c1 (stereo not drawn)	-3.46
COc1ccc(Cn2c(C(C)C)nc3sc4ccccc4c(=O)c3c2=O)cc1	12.4
CN(C)c1ccc(C(CNS(=O)(=O)c2cccc([N+](=O)[O-])c2)N2CCOCC2)cc1 (stereo not drawn)	-10.9

SMILES	hERG current change (%, negative = inhibition) at 10uM [%]
Nc1ccc(S(=O)(=O)N2CCc3ccccc32)cc1	10.8
CC(=O)Nc1cccc(-c2nnc(SCC(=O)n3c4c(c5ccccc53)CCCC4)n2C)c1	2.33
Cc1[nH]nc(SCC(=O)NCC(C)C)c1[N+](=O)[O-]	6.45
Cc1csc(CN(C)C(=O)CC2C(=O)NCCN2Cc2ccc(F)cc2Cl)n1 (stereo not drawn)	-13.5
Cc1ccc(NC(=O)c2ccc3nc[nH]c3c2)cc1C	-5.53
O=C(Nc1ccc2c(c1)CCCN2C(=O)c1cccs1)c1c(F)cccc1F	1.56
CNC(=O)N(O)C1N(/N=C/c2ccc(SC)cc2)C(=S)SC1(C)C (stereo not drawn)	26.3
Cc1ccc([N+](=O)[O-])cc1S(=O)(=O)N1CCC(C)CC1	6.62
CCN(CC)c1ccc(/C=N/NC(=O)Cc2cccs2)c(O)c1	9.91
COc1ccccc1C(=O)OCc1nc(N)nc(Nc2ccccc2C)n1	-2.18
CN(C)c1ccnc2sc(C(=O)NCc3ccccc3)c(N)c12	-27.6
COc1cc(C(=O)Nc2ccc(-n3cnnn3)c(C)c2)cc(OC)c1OC	-4.29
CC(=O)Nc1ccc(NC(=O)Cn2c(=O)n(-c3ccccc3)c(=O)c3oc4ccccc4c32)cc1	-19.8
O=C(NC(c1ccccc1)c1ccccc1)N1CCN(CCO)CC1	-5.23
CCOc1ccc2nc(SC3CC(=O)N(c4ccc(OC)cc4)C3=O)sc2c1 (stereo not drawn)	9.11
Cc1cc(C)c(S(=O)(=O)c2ccccc2C)c(OCCO)n1	-3.41
CCOc1ccc(NC(=O)c2cccc(OC(=S)N3CCC(C)CC3)c2)cc1	-2.73
Cc1[nH]nc(Sc2ccccn2)c1[N+](=O)[O-]	-0.138
CCOc1cc2c(cc1OCC)-n1cccc1C(c1ccc(F)c(OC)c1)NC2.Cl (stereo not drawn)	-9.53
C#CCOCCOCCOCCNc1nc(N2CCN(C(=O)Cn3cc(CCCC[NH3+])nn3)CC2)nc(N2CCN(C(=O)[C@H](CCCC[NH3+])n3cc(CCCC)nn3)CC2)n1.[Cl-]	3.72
CCOC(=O)c1c(C)[nH]c(C)c1C(=O)COC(=O)c1sccc1C	-1.13
Cc1cc(C)n(C(=O)c2cc([N+](=O)[O-])cc([N+](=O)[O-])c2)n1	7.8
O=C(NC1CCCC1)c1ccc([N+](=O)[O-])s1	8.21
COc1ccc(S(=O)(=O)N(CCc2ccccc2)CC(=O)N2CCOCC2)cc1	-32.6
CC(=O)Nc1ccc(S(=O)(=O)NC(CC(=O)O)c2ccc(C)cc2)cc1 (stereo not drawn)	-7.31
O=C(CSc1nnc(-c2cccc(S(=O)(=O)N3CCCCC3)c2)o1)c1ccc[nH]1	1.41
CCOc1ccc(C(C(=O)NC2CCCC2)N(CCOC)C(=O)CNC(=O)c2ccco2)cc1 (stereo not drawn)	-18.9
